# According to PubChem BioAssay AID1347120 (National Center for Advancing Translational Sciences (NCATS), 2019):
# Hit rate of the full screen: of about 390,000 compounds, about 930 (0.24%) were called active. Inconclusive results, whose numbers are uncertain, are shown with a selection of clear calls. The call rests on the fitted dose curve; in most records, active means well fitted activation curve with a large enough effect; inconclusive means small, poorly fitted or top-dose-only effect; inactive means no such curve, though single readings can be large or run the other way. A potency beside an inconclusive call is a rough fit, not a confirmed value.
# Assay: qHTS for Suppressors of FUS Proteinopathy: Primary screen using FUS-linked yeast assay; further: nearly all actives have a fitted effect of over 55% in size;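 on growth rescue (activation): plate controls were DMSO vehicle for no effect and reference control for full effect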
# Conditions: S. cerevisiae FUS-expressing, OD600, 24 h; Potency: growth rescue; growth rescue (activation): at 76.6 µM (top of the series)
# How it was run: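 FUS-expressing yeast, raffinose-pregrown, induced in 2% galactose minimal medium at OD 0.005; compounds in a dilution series, 24hr at 30C. Growth restoration read as absorbance at 600 nm. CP55940 positive control, DMSO negative.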
# Potency means the concentration at half of the fitted maximal effect; tags describe the fitted curve by direction and shape.
SMILES,Potency,growth rescue (activation)
O=C(COc1ccc2c(c1)oc(=O)c1ccccc12)N[C@@H](Cc1c[nH]c2ccccc12)C(=O)O,"inconclusive: 31.6 µM [activator, single point]",
CCOc1ccccc1N1CCN(C(=O)c2ccc(-c3ccc(OC(C)=O)cc3)cc2)CC1,"inconclusive: 20 µM [activator, partial curve, poor fit]",
CCN(CC)c1cc2nc(C)n(Cc3ccccc3)c(=O)c2cc1NC(=O)C1CC1,"inconclusive: 35.5 µM [activator, single point]",
N#Cc1ccc(Cn2ccc3ccc(-c4ccc5ccn(C(=O)C6CCCCC6)c5c4)cc32)cc1,"inconclusive: 44.7 µM [activator, single point]",
COC(=O)c1ccc(/C=C(\C#N)C(=O)NC(C)c2ccccc2)cc1 (centres undefined),,inactive: 14.8%
CCOc1ccc(NC(=S)N(CCc2c(C)[nH]c3ccc(C)cc23)Cc2ccco2)cc1,active: 25.1 µM,
CCCCOc1ccc(C(=O)N(Cc2ccc(C(C)C)cc2)C2CCS(=O)(=O)C2)cc1 (centres undefined),"inconclusive: 20 µM [activator, single point]",
COc1cccc(N(C(=O)Cn2nnc(-c3ccc(C)cc3)n2)C(C(=O)NC(C)(C)C)c2c[nH]c3ccccc23)c1 (centres undefined),"inconclusive: 35.5 µM [activator, partial curve, poor fit]",
O=C(NCCCN1CCCC1)c1ccc2c(c1)N(Cc1cccc(Cl)c1)C(=O)c1ccccc1S2(=O)=O,"inconclusive: 22.4 µM [activator, partial curve]",
CCOc1ccc(Cl)cc1-c1cc(C(=O)Nc2cc(OC)c(OC)c(OC)c2)[nH]n1,"inconclusive: 35.5 µM [activator, single point]",
CC(=O)N1CCc2c(sc3c2c(=O)n(-c2ccccc2C)c(=O)n3Cc2cccc(F)c2)C1,"inconclusive: 22.4 µM [activator, partial curve, poor fit]",
Cc1ccc(OCC(=O)NCCN2CCCC2)cc1,,inconclusive: 63.5% [activator]
COCCCNC(=O)c1sc2nc(C)c(C(=O)Nc3ccc(C)cc3C)c(-c3ccc(Cl)cc3)c2c1N,"inconclusive: 39.8 µM [activator, single point]",
CC(C)C[C@@H](CNCC(=O)[C@H](Cc1c[nH]c2ccccc12)NC(=O)c1[nH]cnc1C(=O)N[C@@H](C)CN)NC(=O)c1nc[nH]c1C(=O)N[C@@H](Cc1ccccc1)C(=O)O,"inconclusive: 50.1 µM [activator, single point]",
COc1ccc(NC(=O)c2c(-c3ccccc3)c(-c3ccccc3)nn(C)c2=O)c(OC)c1,,inactive: 43.7%
Cn1c(=O)cc(OCC(=O)N2CCN(c3ccccc3Cl)CC2)c2ccccc21,,inactive: 15.5%
CC(C)CNc1nnnc2c1sc1nc(N3CCOCC3)c3c(c12)CC(C)(C)SC3,"inconclusive: 25.1 µM [activator, partial curve, poor fit]",
COc1ccc(NS(=O)(=O)c2ccc(C(=O)Nc3c(C)n(C)n(-c4ccccc4)c3=O)cc2)cc1,,inconclusive: -69.4% [activator]
COc1ccc(S(=O)(=O)Nc2cc3c(cc2NCc2ccccc2)n(C)c(=O)n3C)cc1OC,"inconclusive: 22.4 µM [activator, partial curve, poor fit]",
O=C(Nc1ccc2c(c1)CCC2)c1ccc(Br)s1,"inconclusive: 50.1 µM [activator, single point]",
CCOc1ccc(CCNC(=O)COC(=O)CCc2cc(OC)c(OC)c(OC)c2)cc1OCC,"inconclusive: 35.5 µM [activator, partial curve, poor fit]",
O=S(=O)(O)c1cnccc1Nc1cccc(C(F)(F)F)c1,,inactive: -2.46%

SMILES,Potency,growth rescue (activation)
CCCCN(C)CCNC(=O)c1cc2c(-c3cccc(OC)c3)nn(C)c2s1,,inactive: 15.9%
CCOC(=O)c1sc(NC(=O)/C=C/c2c(F)cccc2Cl)nc1C,,inactive: 7.53%
Cc1ccc(N2CCN(C(=S)c3ccc(N(C)C)cc3)CC2)cc1,"inconclusive: 17.8 µM [activator, partial curve, poor fit]",
CCOC(=O)C(=Cc1ccc(-n2cncn2)cc1)C(=O)OCC,,inactive: -4.59%
CC(=O)Nc1cccc(NC(=O)c2cc(-c3cccnc3)nc3ccc(Cl)cc23)c1,"inconclusive: 35.5 µM [activator, single point]",
COc1cccc(CNC(=O)CCCN2C(=O)CSc3c2c(C)nn3-c2ccccc2)c1,"inconclusive: 20 µM [activator, partial curve, poor fit]",
O=C(CSc1nc2ccccc2nc1N1CCCC1)N1CCN(c2cccc(C(F)(F)F)c2)CC1,"inconclusive: 31.6 µM [activator, partial curve]",
Cc1ccc(-c2cc(C(=O)NCCc3ccccc3)c3c(-c4ccc(C)cc4)[nH]nc3n2)cc1,,inactive: -10.8%
Cc1cccc(Nc2c3c(nc4nncn24)CCC3)c1,,inactive: -17.1%
COc1ccc(-c2nnc(SCC(=O)N/N=C\C=C/c3ccco3)n2-c2ccc(C)cc2)cc1,"inconclusive: 11.2 µM [activator, partial curve]",
CN1C(=O)c2ccccc2Sc2ccc(C(=O)O)cc21,,inactive: 7.66%
COc1ccc(C2C(C(=O)/C=C/c3ccco3)=C(O)C(=O)N2CCN2CCOCC2)cc1OC (centres undefined),"inconclusive: 28.2 µM [activator, single point]",
Cc1ccc2c(c1)CCCN2C(=O)Nc1ccc2c(c1)OCO2,"inconclusive: 39.8 µM [activator, single point]",
O=C(O)C1C2C=CC(C2)C1C(=O)Nc1ccc2c(c1)OCCO2 (centres undefined),"inconclusive: 5.01 µM [activator, single point]",
COCCCNC(=O)C[C@H]1C[C@H](C(=O)N2CCOCC2)[C@@]2(CCC3CCCC3)c3[nH]c4cc(-c5ccco5)ccc4c3CCN2C1=O,"inconclusive: 35.5 µM [activator, single point]",
CN(Cc1ccccc1)C(=O)c1ccc(NC(=O)Cc2cccc(NC(=O)C3CCCN(C(=O)C4CCCCC4)C3)c2)cc1 (centres undefined),"inconclusive: 35.5 µM [activator, partial curve, poor fit]",
Cc1ccc(-c2cc(C(=O)Nc3ccccc3C(N)=O)c3ccccc3n2)o1,"inconclusive: 12.6 µM [activator, partial curve, poor fit]",
CCOc1ccc(C2Nc3ccccc3-c3nnc(SCc4ccccc4)nc3O2)cc1OC (centres undefined),"inconclusive: 6.31 µM [activator, partial curve, poor fit]",
CC(=O)N1CC2(C)CN(C(C)=O)CC(C)(C1)C2O (centres undefined),"inconclusive: 11.2 µM [activator, partial curve, poor fit]",
COc1ccc(-c2noc(CSCC(=O)Nc3cccc(C(F)(F)F)c3)n2)cc1OC,,inactive: 14.2%
COc1ccc([N+](=O)[O-])cc1NC(=S)NC(NC(=O)Cc1ccc(OC)c(OC)c1)C(Cl)(Cl)Cl (centres undefined),"inconclusive: 39.8 µM [activator, partial curve, poor fit]",
CC(C)Oc1ccc(CNC(=O)Cn2ccc3cc(S(=O)(=O)N4CCCC4)ccc32)cc1,,inactive: 12.5%

SMILES,Potency,growth rescue (activation)
CCCC(=O)OC12CCCN(C1)/C(=C/c1cccc(N(C)C)c1)C2 (centres undefined),,inactive: -3.75%
CC(C)(C)NCC(=O)N/N=C/c1ccc(OCc2ccccc2)cc1,,inactive: 13.2%
CC(=O)C(C(C)=O)c1c(Cl)c(O)c(O)c2c(C(=O)c3ccccc3)coc12,"inconclusive: 3.55 µM [activator, full curve]",
O=C(OCc1cccc([N+](=O)[O-])c1)c1cccnc1Cl,"inconclusive: 5.01 µM [activator, single point]",
CCOc1ccc(CC2S/C(=N/N=C/c3ccco3)NC2=O)cc1 (centres undefined),"inconclusive: 15.8 µM [activator, partial curve]",
COc1ccc(NCc2cc3cc4c(cc3n(CC(=O)Nc3ccc(C)cc3)c2=O)OCO4)cc1,active: 14.1 µM,
COc1ccc(-c2nc(SCC(=O)Nc3ccc4c(c3)OCO4)c(-c3ccc(OC)cc3)[nH]2)cc1,,inactive: 9.95%
C=CCNC(=O)Nc1ccc2c(c1)[C@@]1(CC(=O)N(CC(C)C)C1c1ccccc1)C(=O)N2C (some centres undefined),,inactive: 12.5%
CCOc1ccccc1NC(=O)C1CCN(S(=O)(=O)c2ccccc2)CC1,,inactive: 12.3%
COc1ccc(N/N=C(/C(C)=O)N2CCCc3ccccc32)cc1,,inactive: 16%
CCOc1ccc(C(C(=O)NCC2CCCO2)N(C(=O)c2snc(C(N)=O)c2N)c2ccc3c(c2)OCCO3)cc1 (centres undefined),"inconclusive: 15.8 µM [activator, partial curve, poor fit]",
Cc1cc2ccccn2c1C(=O)c1ccc([N+](=O)[O-])cc1[N+](=O)[O-],,inactive: -23.8%
c1ccc2c(c1)nc1n2CCS1,"inconclusive: 35.5 µM [activator, single point]",
COc1ccc(-c2csc(C(O)c3ccccc3)n2)cc1 (centres undefined),,inactive: 8.11%
Cc1c(C(=O)O)cccc1-c1ccc(/C=N/n2cnnc2)o1,,inactive: 1.04%
Cc1cnc(C(=O)OCC(=O)Nc2oc(-c3ccccc3)c(-c3ccccc3)c2C#N)cn1,"inconclusive: 50.1 µM [activator, partial curve, poor fit]",
CCOC(=O)[C@]12CCCCC/C=C\1N(Cc1ccc(OC)cc1)C(=O)[C@H]2CC(=O)NCCc1ccccc1OC,"inconclusive: 17.8 µM [activator, partial curve]",
CC(C)OC(=O)CSc1nnc(CNc2ccc(Cl)cc2)n1Cc1ccccc1,,inactive: 37.2%
COc1ccc(CCNC(=O)c2cc3c(=O)n4ccccc4nc3n(C3CCCCC3)c2=N)cc1,,inactive: 7.53%
O=C(Nc1cc(N2CCOCC2)ncn1)c1ccc(F)cc1,,inconclusive: -108% [activator]
